Several values for one entry are separate records, joined by “and”; a condition that tells them apart may be missing. Equal values may be shown once.
Details: Homo sapiens, 23 °C, GdnHCl, Fluorescence, reversible: Unknown

Substance: Interleukin-8 wild type (sequence left out)
- denaturant midpoint (higher = more stable) (pH 5.2, Acetate 50 mM): 3.9 M and 1.5 M
- denaturant midpoint (higher = more stable) (pH 7, Phosphate 50 mM): 4.3 M and 3.4 M and 1.5 M
- unfolding free energy (pH 7, Phosphate 50 mM): 6 kcal/mol and 3.2 kcal/mol and 2.2 kcal/mol
